Source: PubChem BioAssay AID2546 (National Center for Advancing Translational Sciences (NCATS), 2010)
Hit rate of the full screen: of about 310,000 compounds, about 11,000 (3.5%) were called active. The inconclusive results got no clear call from the source; some entries with a clear call stand among them for comparison. Calls follow the shape of the dose curve; as a rule, active = well fitted inhibition curve with a large enough effect; inconclusive = small, poorly fitted or top-dose-only effect, or effect the other way; inactive = flat fitted curve, though single readings scatter. No potency is given beside an inconclusive call; the fits are too rough.

test: VP16 counterscreen qHTS for inhibitors of ROR gamma transcriptional activity; conditions: Drosophila S2 Gal4-VP16 UAS-luciferase, luminescence, 20 h; activity, negative = inhibition: at 53.6 µM (top of the series);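 also: Gal4-VP16 expression switched on by copper sulfate through the metallothionein promoter; nearly all actives have a fitted effect of over 50% in size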
% is scaled to controls: 0 for no effect and ±100 for the full control effect; potency is read from the fitted curve at half-maximal effect; tags tell the direction and shape of the fitted curve.

Structure (SMILES)	Potency	activity, negative = inhibition
O=C(O)Cc1csc(NC(=O)c2ccco2)n1	inconclusive [inhibitor, single point]	–
CCn1c(CN2c3ccccc3Sc3ccccc32)n[nH]c1=S	inconclusive [inhibitor, single point]	–
CC(C)NC(=S)NC(=O)c1ccc(Cl)cc1Cl	active: 10 µM	–
O=C(CNc1ccccc1)Nc1ccc(F)cc1	inconclusive [inhibitor, single point]	–
Cc1ccc(-c2c(C(=O)N/N=C/c3c[nH]c4ccccc34)nnn2-c2nonc2N)cc1	inconclusive [inhibitor, single point]	–
S=C(NCCc1ccccc1)N/N=C/c1ccc(Cl)cc1	inconclusive [inhibitor, single point]	–
C/C(=N/NC(=O)c1ccc(Br)o1)c1cccs1	inconclusive [activator, partial curve, poor fit]	–
Cc1cccc(NS(=O)(=O)c2ccc(NC(=O)CN(c3cc([N+](=O)[O-])ccc3C)S(C)(=O)=O)cc2)c1	inconclusive [inhibitor, single point]	–
Cc1noc(C)c1-c1ccc2ncnc(NCc3cccc(F)c3)c2c1	inconclusive [inhibitor, partial curve]	–
Cn1cc(C(=O)c2ccc(Cl)cc2Cl)cc1C(=O)N/N=C(\N)COc1ccc(Cl)cc1Cl	active: 3.98 µM	–
NC(N)=N/N=C/c1ccc(OCc2ccc(Cl)cc2Cl)cc1	inconclusive [inhibitor, single point]	–
Cn1nc(-c2ccc(C(=O)Nc3ccc(F)cc3)cc2)c2ccccc2c1=O	inconclusive [inhibitor, single point]	–
CCC(C)Sc1nnc(CNC(=O)C23CC4CC(CC(C4)C2)C3)n1C1CCCCC1 (configuration not stated)	inconclusive [inhibitor, single point]	–
CC(=O)OCCCN1c2ccccc2Nc2nnc(-c3ccccc3)cc21	inconclusive [inhibitor, single point]	–
CCN(CC(=O)Nc1ccccc1C(=O)Nc1ccccc1)Cc1nc2ccccc2c(=O)[nH]1	inconclusive [inhibitor, single point]	–
CCC1CCCCN1C(=S)NC(=O)c1ccc(F)c(S(=O)(=O)N2CCOCC2)c1 (configuration not stated)	active: 1.58 µM	–
Cc1cc(C)nc(SCNC(=O)c2ccccc2)n1	active: 3.98 µM	–
S=C(NCc1ccc2c(c1)OCO2)NC1CCN(Cc2ccccc2)CC1	inconclusive [inhibitor, single point]	–
CCC(NC(=O)Nc1ncccc1C)(C(F)(F)F)C(F)(F)F	–	inactive: -2.76%
CC1CN(S(=O)(=O)c2csc(C(=O)Nc3ccccc3)c2)CC(C)O1 (configuration not stated)	inconclusive [inhibitor, single point]	–
CSc1nc(-c2ccccc2)nc(C(Cl)Cl)n1	inconclusive [inhibitor, single point]	–
Cc1csc(NC(=O)c2ccc(C)c([N+](=O)[O-])c2)n1	active: 14.1 µM	–
CC(C[N+](C)(C)C)OC(=O)C1(c2ccccc2)CCCC1 (configuration not stated)	inconclusive [inhibitor, partial curve]	–
COc1ccc(CCNC(=O)c2ccc(CNc3nc(=S)[nH]c4ccccc34)cc2)cc1OC	–	inactive: 3.66%

Structure (SMILES)	Potency	activity, negative = inhibition
Cn1c(=O)c(-c2cc(F)cc(F)c2)nc2cnc(N3CCOCC3)nc21	–	inactive: 7.02%
COC(=O)C1=C(C)N(Cc2ccccc2)C(=NCc2cccc(C(F)(F)F)c2)N[C@H]1c1cccc(F)c1	inconclusive [inhibitor, single point]	–
O=C(N/N=C/CCc1ccccc1)c1ccc(CN2c3cccc4cccc(c34)S2(=O)=O)cc1	inconclusive [inhibitor, single point]	–
CC(C)Oc1cccc(-c2cc(C(=O)N3CCN(c4ncccn4)CC3)c3ccccc3n2)c1	active: 11.2 µM	–
O=C(NC(=S)Nc1ccc(S(=O)(=O)NC2CCCCC2)cc1)c1cccs1	active: 0.447 µM	–
COC(=O)c1cc(C(=O)NCc2ccc3c(c2)OCO3)cc([N+](=O)[O-])c1	–	inactive: 4.1%
Cc1ccccc1-c1nc2c3ccccc3nc(=S)n2[nH]1	active: 1 µM	–
CCOC(=O)c1sc(NC(=O)Nc2ccc(F)cc2)nc1C	inconclusive [inhibitor, partial curve]	–
CCc1ccccc1Nc1nc2ccccc2n1CC	inconclusive [inhibitor, single point]	–
CC(C)(C)c1ccc(/C=C/C(=O)N2CCCCC2)cc1	inconclusive [activator, single point]	–
Cc1ccc(OCC(=O)N2CCCC(CCC(=O)N(C)CCc3ccccn3)C2)cc1 (configuration not stated)	inconclusive [inhibitor, single point]	–
COc1ccc(N=CC2=C(O)c3ccccc3C2=O)cc1	inconclusive [inhibitor, full curve]	–
N#CCSc1nnc(COc2cccc3ccccc23)n1-c1ccccc1	inconclusive [inhibitor, single point]	–
COc1ccc(C(=O)/C=C/C(=O)N(CC(=O)NC2CCCCC2)Cc2cccs2)c(O)c1	active: 5.01 µM	–
CC(C)OCCCn1c(=S)[nH]c2ccc(N3CCOCC3)cc2c1=O	–	inactive: -1.3%
CCn1c(CCc2ccccc2)nc2ccccc21	inconclusive [inhibitor, single point]	–
Cc1ccc(S(=O)(=O)N(C)C)cc1NC(=O)C(C)N(C)CCOc1ccc(Cl)cc1 (configuration not stated)	inconclusive [inhibitor, single point]	–
N=c1c2c(ncn1Cc1ccco1)Oc1cc(O)ccc1C2c1ccccc1 (configuration not stated)	inconclusive [inhibitor, single point]	–
CNC(=S)N/N=C/c1cn(CCOc2ccccc2OC)c2ccccc12	active: 1 µM	–
COc1cccc(N2CCN(C(=O)C3CCN(S(=O)(=O)c4ccc5c(c4)oc(=O)n5C)CC3)CC2)c1	–	inactive: -2.42%
CCOC(=O)C1CCN(S(=O)(=O)c2cccc(-c3csc(C)n3)c2)CC1	–	inactive: 3.59%
O=C(COc1ccc([N+](=O)[O-])cc1)NNC(=O)Nc1ccccc1F	–	inactive: -9.13%
O=S(=O)(Nc1cccc2c1CCCC2)c1cccc(C(F)(F)F)c1	inconclusive [inhibitor, single point]	–
CN1C(=O)c2cccc3c(S(=O)(=O)Nc4ccccn4)ccc1c23	inconclusive [activator, single point]	–

Structure (SMILES)	Potency	activity, negative = inhibition
Cc1ccc2c(c1)c1ccc3c(c1n2C)C(=O)C=CC3=O	active: 11.2 µM	–
Cc1ccc(-c2noc(CN(C(=O)C(c3ccccc3)c3ccccc3)C(C)C)n2)cc1	inconclusive [inhibitor, single point]	–
Cc1ccc(NC(=O)Cn2cc(S(=O)(=O)c3ccc(F)cc3)c(=O)c3cc(F)ccc32)cc1	inconclusive [inhibitor, partial curve, poor fit]	–
O=C(N/N=C/c1cccs1)c1cc(-c2ccc3ccccc3c2)n[nH]1	active: 5.01 µM	–
CCOC(=O)c1c(SCC(=O)Nc2nccs2)nc(C)c(C)c1C	inconclusive [activator, partial curve]	–
CCOc1ccc(NC(=O)c2nccnc2CO)cc1	inconclusive [inhibitor, partial curve, poor fit]	–
O=C(Nc1ccc(NS(=O)(=O)c2ccccc2)cc1)c1ccc(Cl)cc1	–	inactive: -16.6%
CCOC(=O)c1c(-c2ccccc2)oc2ccc(O)cc12	inconclusive [inhibitor, single point]	–
COc1ccc(C(CCNC(C)c2ccccc2)c2ccc(F)cc2)cc1 (configuration not stated)	inconclusive [inhibitor, single point]	–
Cc1ccc(SCC(=O)Nc2ccc(-c3nc4ccccc4[nH]3)cc2)cc1	inconclusive [inhibitor, single point]	–
Cc1cccc(NS(=O)(=O)c2ccc(C(=O)NCC(C)(C)N3CCOCC3)cc2)c1C	–	inactive: -9.11%
C=CCn1c(C)cc(/C([O-])=C(/C(=S)Nc2ccc(OC(F)F)cc2)[n+]2ccc(N(C)C)cc2)c1C	–	inactive: -6.13%
N#C/C(=C1\CCCN1)c1ccc2ccccc2n1	–	inactive: 1.61%
Cc1ccc2c(c1Br)/C(=N/N1C(=O)c3ccccc3C1=O)C(=O)N2	inconclusive [inhibitor, single point]	–
CC1=CC(C)(C)N(C(=O)CSc2nccn2C)c2cc(C)ccc21	inconclusive [inhibitor, single point]	–
CCC(=O)c1ccc(N2CCCCCC2)c(F)c1	inconclusive [inhibitor, single point]	–
COC(=O)Cc1ccc(NC(=S)NCc2ccccc2Cl)cc1	inconclusive [inhibitor, single point]	–
O=c1[nH]c(N/N=C\c2ccc(F)cc2)nc2ccccc12	–	inactive: -25.1%
CCCNc1ccc(C(=O)OCC)cc1[N+](=O)[O-]	–	inactive: -7.45%
Cc1nnsc1C(=O)NC1CCCc2c1cnn2-c1ccc(F)cc1F (configuration not stated)	active: 7.08 µM	–
COc1ccc(S(=O)(=O)N(C)C)cc1NS(=O)(=O)c1ccc(F)c(F)c1F	active: 12.6 µM	–
Cc1ccc(Cl)cc1NC(=O)CSC(N)=O	inconclusive [inhibitor, single point]	–
O[C@@H]1[C@@H]2c3cc4c(cc3CN3CCC(=C[C@@H]1O)[C@H]23)OCO4	active: 2.51 µM	–
Cc1cccc(-c2ocnc2C(=O)Nc2ccccc2NC(=O)c2ccccn2)c1	active: 8.91 µM	–
